# Reference: the RNAGym collection of RNA variant scans (doi:10.7554/elife.90254)
# The source gives no read counts; variants with many changes may rest on few reads.
# B1: LINE1-full (parent)
# chain: UACGUAGGUGGUUUUCCCCUGAUAGUGCUAAGGGGGCCUGGAAGUUUGGACUGGGCAGAGCUCAACACAGCGUGGCAAAGUGGCUGUGGCUAGACUGCCUCUCUGGAUUCCUCGUCACUCAGCAGGGCAUCUCUGAGAGAAAUGCC
# Variants of: B1
# Assay: self-cleavage, relative activity (ratio to wild type); higher = more cleavage; in vitro, sequencing; the parent is a self-cleaving ribozyme
row,Variant,self-cleavage
1,U13C G75A U104A,0.84
2,U13C U23A U73G,1.06
3,U13C U14A U15A U119C U130C,2.16
4,U13C A69U U104A A142G,0.11
5,U13C U15A G25A,1.22
6,U13C A50G A136G,0.77
7,U13A U23C G40U A43G U100C,0.25
8,U13C A43G A57G U119C U143A,0.92
9,U13C C66U A78G G86C A141G,0.07
10,U13C A64G A69U U73C G135A,0
11,U13C A43G U73A C145U,1.13
12,U13C A79G U119C U130C U134A,1.15
13,U13C G35A A59G U73C U119A,0.2
14,U13C A129C A136G,2.04
15,U13C C90U U96C A117U A142G,0.04
16,U13C U20A A31U,1.12
17,U13C C84U A138U,0.1
18,U13C A138G A140G,1.31
19,U13C C18A U47C A59G A69G A94U A142G,0.77
20,U13A U15G U45C C66U U91C U112C,0
21,U13A U20C U47A U62C U100C U102C,0

row,Variant,self-cleavage
1,U13C A77G A140U,2.39
2,U13C U14C U109C U130C,0.37
3,U13A G40U U100C,1.22
4,U13C A59G U73C,0.64
5,U13A U26C A42G A64U A92G U108A C113A,0.33
6,U13C A79U U112C A121G C146U,1.65
7,U13C G54A A65G A136G,0.07
8,U13C A24G A69U,0
9,U13A U81A U104A,1.35
10,U13C A50U A69G,0.69
11,U13C A129G A141G,1.15
12,U13C A57G A65G G114A,0.14
13,U13C U15C C71U,0.88
14,U13A U87C U132C A138U,0
15,U13A A22G A30U A57G A124U,0.65
16,U13C A79G G88A,0.12
17,U13C A67G A107G C118U,0.73
18,U13C A64G C90U A141G,0.05
19,U13C U14C A107G A121U,1.41
20,U13A A64U U73A U100C C110U A136G,0.6
21,U13C A64U U115A,0.81

row,Variant,self-cleavage
1,U13C A69U A77U,0.23
2,U13C A57U A78G U108C A140G,0.23
3,U13C A64U U115C A136G,0.34
4,U12G U47C A79G,0
5,U13C A24U U143C,1.17
6,U13C A107G A136G,1.53
7,U13C A42G U96A,0.17
8,U13C C37A U73C A92G A107G,0.18
9,U13C G49U U73C,1.12
10,U13C C19U A65U,0.26
11,U13C A42G A59U A140G A141G,1.91
12,U12G U112C U143C,1.43
13,U13A U29C U85A,0.17
14,U13C A42G A59G,0.19
15,U13C U14C U62A,0.06
16,U13A G27A U39A U134C,1.7
17,U13C A59G A117G,0
18,U13C C18U U20A U45A A141G,0.47
19,U13A A31U U130C U134A,1.24
20,U13C U14C U87G A124U A136G,1.15
21,U13C U20C U45C,1.58

row,Variant,self-cleavage
1,U13C A42U U45G,0.39
2,U13A A42G A141G,0.75
3,U13A A64G A140G,0.38
4,U13C G88C A140G,0.08
5,U13C G72A U96C,0.02
6,U12G U62C A121C,0
7,U13C A65G U109C C145G,0
8,U13C A22G U85C G93U,0.26
9,U13C A43G A107U U132C U143A,0
10,U13C A59G A124G,0
11,U13A C17U U104C,0.74
12,U13C G34A A117C,1.31
13,U13C A77U U112C,1.26
14,U13A A50G U108C A129G,1.53
15,U13A U20C A24G G53U,1.21
16,U13C G40A G44A A79G U85C A94U A136C A138U,0.05
17,U13A A31C U62C U115C,0
18,U13C A57U A67G A107G A117U,0
19,U13A U85C U96C,0.28
20,U13C G33C U115C,1.23
21,U12G U87C A92U U115A,0.35
